# Measurements as given in the RNAGym collection of RNA variant scans (doi:10.1073/pnas.2313332121).
# Variants at the background level are over-represented here.
# B1: TPR 5TU (parent)
# chain: GGAUCUUCUCGAUCUAACAAAAAAGACAAAUCUGCCACAAAGCUUGAGAGCAUCUUCGGAUGCAGAGGCGGCAGCCUUCGGUGGCGCGAUAGCGCCAACGUUCUCAACUAUGACACGCAAAACGCGUGCUCCGUUGAAUGGAGUUUAUCAUG
# Variants of: B1
# Test: polymerase ribozyme fitness, log enrichment relative to wild type (log ratio); higher = more active; in vitro selection for triplet polymerase activity
# Procedure, shortened: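 Streptavidin-bead capture of gel-excised extended constructs, followed by RT-PCR, closed a single triplicate in vitro selection round. That round began by annealing PCR-built, transcribed mutant libraries of each subunit of a heterodimeric triplet polymerase ribozyme with a biotinylated primer, the partner subunit and triplets, then incubating them frozen at −7 °C. After Illumina sequencing of inputs and outputs, genotypes needed ≥10 input reads and ≥1 read per output. Fitness is the base-2 logarithm of genotype enrichment over wild-type enrichment, using inverse-variance-weighted replicate averages.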
row,Variant,polymerase ribozyme fitness (log ratio)
1,C14A G59U G83A C132G U144A,≤ -4.2
2,C14A A37U A52G G83A G84A A115U,≤ -4.2
3,C14G C27A U44A G48C C87U U145C,≤ -4.2
4,C14U A40G C87G A91G C123U,≤ -4.2
5,C14A G58C G70U C87A A97C G112U C116A U151G,≤ -4.2
6,U15G A22C U148G,≤ -4.2
7,C14G A28C U55G,≤ -4.2
8,U15C G50A C54U G84U A91C C118A U144A C149G,≤ -4.2
9,C14A U55G C93U A97G A115C C118G,≤ -4.2
10,C14G C35A G92U U135A U151C,≤ -4.2
11,C14G C32G A41G C79U G84A C149U,≤ -4.2
12,C14A C43U U45A G68C C85G U102G G133U,≤ -4.2
13,U15G A66G C96U,≤ -4.2
14,C14U U56G G83U C95U C116U,-3.87
15,C14A A29C C96G A150U,≤ -4.2
16,C14U A23U C35U A73G C76G A91C C103G A121U,≤ -4.2
17,U15A C57U C63A G68A C87U A122U,≤ -4.2
18,C14U G48U U55A A73U A91U C99A A138G U144C,≤ -4.2
19,U15G A22U C36G G67A C116A U134A A142U U145C,≤ -4.2
20,C14G A26U G94C,≤ -4.2
21,C14G C129A,≤ -4.2
22,C14U A23C,≤ -4.2
23,C14A U53A G59A C85U C87U A106C U135G,≤ -4.2
24,U15G A17C C18A C87G A110G A115C,≤ -4.2

row,Variant,polymerase ribozyme fitness (log ratio)
1,U15G C38A G88U C116U G136A G141C U145A,≤ -4.2
2,C14G A91U C93G C125A,≤ -4.2
3,C14U G50C C75G,≤ -4.2
4,U15G C27G G48A U61A C93U,≤ -4.2
5,U15G G94C C96U U111A G152A,≤ -4.2
6,C14A A23C A66U C93A G128U U151A,≤ -4.2
7,C14A A17U A40U C57G G84U C96A A121C,≤ -4.2
8,U15A G50U C95G C132G,≤ -4.2
9,C14U C18U A49G G59C G80C C85U,≤ -4.2
10,C14U C35A A40G G84A,≤ -4.2
11,C14U U15G U45A G58U C75G U135C,≤ -4.2
12,U15G U56G C75U U109C C114G A115G G117A C125A U135G,≤ -4.2
13,U15C A20U A41U C57G A98G,-1.74
14,C14U A26G A47U C95U G124U,≤ -4.2
15,C14U A20C C87G A91C A137C U148C,≤ -4.2
16,U15G A110G,-3.59
17,C14U A49C,≤ -4.2
18,C14U C32U C85G,≤ -4.2
19,A16C A22U C69U C85G C103A,≤ -4.2
20,U15A A17C A23U U55A G84A G92A G94A U102G C116G,≤ -4.2
21,U15A A22C C27U U31G C38U G92U G133U U144C,≤ -4.2
22,U15G G65A C76G U82C C85U G92A,≤ -4.2
23,C14G U31C C38U A47C C85A C96U U148G G152C,≤ -4.2
24,C14U G74A G94A A122G,≤ -4.2

row,Variant,polymerase ribozyme fitness (log ratio)
1,C14G A20G U31G C35U C54G,≤ -4.2
2,U13G U56A,-0.285
3,U13G U56A C76G A91U C93U,≤ -4.2
4,C14G U33C U56A C85A C99G G117U C123U,-3.91
5,C14A G86C U90A A150U,≤ -4.2
6,C14U A17G G70C G80A A137U,≤ -4.2
7,C14G U15C C51U G68A G83A U90G C149G,≤ -4.2
8,U15A A29C C38U A119U G126A U144A C149G,≤ -4.2
9,C14U C63U C85A A115G,-3.56
10,C14U C72A C85G G133U,≤ -4.2
11,U15G G58C G70C A91U,≤ -4.2
12,C14A U77A G83U C85A G94C G124A A147U,≤ -4.2
13,C14U G34U G68A C85U U144A C149A,≤ -4.2
14,C14U G58A C63U A66C C96A C108U,≤ -4.2
15,C14U A16G A24U A28C G59U C85U C93G C116A,≤ -4.2
16,C14U C27G G94C G133U A150G,≤ -4.2
17,C14G A24G C51U C57A G136U A142C,≤ -4.2
18,C14U A17U A28G U44A A73G C95A G100U A106G A115G,≤ -4.2
19,C14G G46C A107U,≤ -4.2
20,U13G U45A U55A C87A U146A,≤ -4.2
21,U15C A19C C85U C87U,0.246
22,U15A A73C G94A,-3.39
23,C14G U15C A106C G140U,≤ -4.2
24,C14U A91U G92C C114A G141A,≤ -4.2

row,Variant,polymerase ribozyme fitness (log ratio)
1,U15G A47G U111C,≤ -4.2
2,C14G G50C C79A C114A G136A A150G,≤ -4.2
3,U15G G34A A37C G62C C76U C108U C125A,≤ -4.2
4,A16C A23U U31C A47G C54U G92U G117U,≤ -4.2
5,C14U C35U A60G C95U A115U U144G,≤ -4.2
6,U15C C79A C96U U101C G126U,≤ -4.2
7,U15C C36U A52C U55A A64G A73U C87G U145C,≤ -4.2
8,C14G A23G A73G G84U G126C U135A,≤ -4.2
9,U15C A24C U55A C69G C132G U135A,≤ -4.2
10,C14G A22C A39C A52G C75G U82G G140U,≤ -4.2
11,C14G C35A A64G G70A G83A C87U A150G,≤ -4.2
12,C14G G88U C93A C116G U144A,≤ -4.2
13,C14A G92U C93U G126C G140A,≤ -4.2
14,C14U C27G A29U C54U C75U C95U A107G,≤ -4.2
15,C14A A22G C76U C85U U90G,≤ -4.2
16,U15C A28C A40G C43A G84U C125A,≤ -4.2
17,U15A U90A C95U A121U U127A,≤ -4.2
18,C14G A29C U53A C95U C114U G140A,-3.68
19,C14G A24U U61A,≤ -4.2
20,C14A C75U,-1.84
21,C14U C38A A52C U55A A73C G81C C93A A97U C108G U145A,≤ -4.2
22,U15C C93G,-2.27
23,C14A A30U C63U C85U A89C A91C G141C U151A,≤ -4.2
24,C14G A23C A40C G59A C85G G141C U144A,≤ -4.2

row,Variant,polymerase ribozyme fitness (log ratio)
1,U15A U44G G80C A113G U146C,≤ -4.2
2,C14U A39U G46A C85A C96U A119C,≤ -4.2
3,C14U A17C C35G G141C U151A,≤ -4.2
4,C14U A23U U44A G68U A73G U127C A142C,≤ -4.2
5,U15A A39U C96U C114A A122G C123U C125A,-4.11
6,U15G G68A C85U U104A C105U,≤ -4.2
7,C14A A20U A24C C76U U139A U151G,≤ -4.2
8,C14A A19U U56G G86U C116G C125U G133A G143C,≤ -4.2
9,C14G C35A G83C U101C,≤ -4.2
10,U15A C32A U56G G58U G84U C108U U139G,≤ -4.2
11,C14G C75U G94C A122U G124A,-3.86
12,U15G G25U,-3.22
13,C14G U56A C76G G83A G86U G136A,≤ -4.2
14,C14U G50C G74C C93U A115U C116U U151A,≤ -4.2
15,C14U C32G C54G A113C C123U G128U U135A U144A,≤ -4.2
16,U15A G25A G42C C79A,≤ -4.2
17,U15A C36U C87U G124U A137C,-4.03
18,C14A A40C G92C G143A,≤ -4.2
19,U15C U44G U53A C85U A113U G126A G133C U146G,≤ -4.2
20,U15G A20U C85A G126A G133U,≤ -4.2
21,U15G G42C C43U C51A G84U G140A,≤ -4.2
22,A16C A22C C27A C35A U55A C95G,≤ -4.2
23,U15C A28G C51A G71U C95U G133U U145G,≤ -4.2
24,C14G C79A C93G C96A,≤ -4.2

row,Variant,polymerase ribozyme fitness (log ratio)
1,C14G G83U,-2.05
2,C14G G50C A91U A119G C132U A150G,≤ -4.2
3,C14U G50C C76A G84A C108G C129A,≤ -4.2
4,U15G G46U G65A G68C C85U C116G,≤ -4.2
5,U15G A28G C35G A73U A142G,≤ -4.2
6,C14G A22U A26G A28C U134A,≤ -4.2
7,C14U U135C,-3.88
8,C14G A23U A28C A40G G42C A89U C116G G124C U134G,≤ -4.2
9,U15G G50A C87A C116A A121U,≤ -4.2
10,C14G A28G U31A C32U G34A G42C U55G G94U,≤ -4.2
11,C14U G62C C75A C93G,≤ -4.2
12,C14G A47G C118G A119G A121U G141U,≤ -4.2
13,C14U A47C G50A G70A U77C C85A C125G C132A A142U,≤ -4.2
14,C14A A23U G74A C85G A106U G140C,≤ -4.2
15,U13G U44C G86A A91C U139C,≤ -4.2
16,C14U C105G,-3.25
17,C14G C18U A24G U56A C85U A113C G124A C129U,≤ -4.2
18,C14U G59A C85U U134A,-4.12
19,C14G A21U G68A G84U C131G G143U,≤ -4.2
20,C14U C43U A97U C131G,≤ -4.2
21,C14G C36U G92C,≤ -4.2
22,U15C A40G G67A G94A G100A A107U,≤ -4.2
23,U15G A19C A39G G68U G70U U90A C93G A97U C123U G128U,≤ -4.2
24,U15C C18U C85G C118U G136U,-3.19

row,Variant,polymerase ribozyme fitness (log ratio)
1,C14G A20G A24U C72G U82G A97G U101C C103G G136A,≤ -4.2
2,C14G A28U U55G A89U C96A G126A G128C G140C,≤ -4.2
3,U15A G25U U55G C57A C76A C85A A137G,≤ -4.2
4,U15G C54U A60U C75G A113G,≤ -4.2
5,U15C A22C C36A A106G G143A,≤ -4.2
6,U15G A26U C38U A64G G74A G86U U146G,≤ -4.2
7,C14G A24C A60G G62A G65C C87U U145G,≤ -4.2
8,C14A A19C A47U G59A A66G A73U G94C U104A U127G,≤ -4.2
9,C14U A22C G59C C75U A91U A121U U135C,≤ -4.2
10,C14G A22G C54U G70U C95U C96A C114U A137C,≤ -4.2
11,C14A C85G U135A,≤ -4.2
12,C14U A73U U78G C87G A122U C123U,≤ -4.2
13,U13G U55G G84A C105G U111C C123A G140U,≤ -4.2
14,C14U A20C A49C A52C U77G C96G A142C,≤ -4.2
15,C14G A40U A73G U104C,≤ -4.2
16,U13G U56G C75G,≤ -4.2
17,C14U G34U A52U G81C C93A,≤ -4.2
18,C14A A16C A28G A60G C79G A91G U109A,≤ -4.2
19,U15G C103A,-1.91
20,C14A U56A U90A C96G G126A,≤ -4.2
21,C14U U53G A97G C123G,≤ -4.2
22,U15A C27U A40U U45A U61G C79G C87A A91G,≤ -4.2
23,C14G A23G G46C G58A G62C G92A C114A A142U,≤ -4.2
